Hit rate of the full screen: of about 110,000 compounds, about 230 (0.21%) showed an effect of 50% or more. The list shows a part of the results.
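Note: 30 min substrate incubation versus DMSO and 10 µM JCP410 controls.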

Sequence of DPAP1 (Q8IIJ9 whole entry, looked up): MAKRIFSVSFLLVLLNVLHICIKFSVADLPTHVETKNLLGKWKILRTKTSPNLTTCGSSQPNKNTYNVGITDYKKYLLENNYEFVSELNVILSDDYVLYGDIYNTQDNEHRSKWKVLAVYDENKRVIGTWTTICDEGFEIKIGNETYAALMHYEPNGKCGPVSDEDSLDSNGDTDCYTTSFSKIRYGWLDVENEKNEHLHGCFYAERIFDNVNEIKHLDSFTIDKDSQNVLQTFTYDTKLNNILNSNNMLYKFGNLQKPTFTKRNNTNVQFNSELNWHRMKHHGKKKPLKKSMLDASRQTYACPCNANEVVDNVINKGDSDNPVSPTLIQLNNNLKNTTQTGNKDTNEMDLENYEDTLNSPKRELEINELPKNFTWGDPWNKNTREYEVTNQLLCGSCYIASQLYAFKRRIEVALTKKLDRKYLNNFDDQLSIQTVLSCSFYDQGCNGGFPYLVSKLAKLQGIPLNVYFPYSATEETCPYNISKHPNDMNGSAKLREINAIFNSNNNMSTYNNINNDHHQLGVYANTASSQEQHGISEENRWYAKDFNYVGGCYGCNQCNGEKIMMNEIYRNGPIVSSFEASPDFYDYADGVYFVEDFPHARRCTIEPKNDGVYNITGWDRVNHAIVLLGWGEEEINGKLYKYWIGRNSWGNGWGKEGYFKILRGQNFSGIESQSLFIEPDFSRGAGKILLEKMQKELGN

This assay concerns the target DPAP1 (Plasmodium falciparum, UniProt Q8IIJ9). The assay can be described thus: primary screen, percent inhibition; read by cleavage of a fluorogenic dipeptide substrate; higher = more effect of the substance. Set-up: species or system P. falciparum D10 trophozoite lysates; single well.
As to `COc1cccc(OC)c1C(=O)Nc1ccc(F)c(Cl)c1`, the “% Inhibition @ 10 uM” value came to 3.44%.

With `CN(CC(=O)Nc1ccc(Oc2ccccc2)cc1)S(=O)(=O)c1ccc(Br)cc1`, the “% Inhibition @ 10 uM” value turned out to be 2.01%.

With `COc1ccc(CNCc2cc(C)c(OC)cc2C)c(OC)c1`, the “% Inhibition @ 10 uM” value is -2.22%.

For the molecule `O=C(CSc1ccccc1C(=O)O)NCCc1ccccc1`, the “% Inhibition @ 10 uM” value is -6.84%.

As to `COc1cc(/C=C2\NC(=O)NC2=O)cc(Cl)c1OCc1cccc(C(=O)O)c1`, the “% Inhibition @ 10 uM” value worked out at 3.19%.

Turning to `O=C1NC(c2ccc(O)cc2)C(C(=O)c2ccccc2)C(O)(C(F)(F)F)N1` (stereo not shown), the “% Inhibition @ 10 uM” value stood at 0.873%.

Regarding `O=C(NCCSc1ccc(Cl)cc1)c1ccc(CN2CCOCC2)cc1`, the “% Inhibition @ 10 uM” value was determined as 2.36%.

With `CC(C)N1CCN(Cc2ccccc2Br)CC1`, the “% Inhibition @ 10 uM” value stood at 3.06%.

Consider `COc1ccc(-c2noc(CNC(=O)N3CCOCC3)n2)cc1`, for which the “% Inhibition @ 10 uM” value is -4.82%.

`COc1ccc(C(=O)Nc2cc(C)ccc2C)c(OC)c1`: the “% Inhibition @ 10 uM” value is reported as -8.33%.

Consider `CN(C)CCN(Cc1ccccc1)Cc1ccc([N+](=O)[O-])cc1`, for which the “% Inhibition @ 10 uM” value is reported as 5.01%.

For `Cc1cc(C)n(-c2nc3c(C)cccc3s2)n1`, the “% Inhibition @ 10 uM” value is on record as 4.31%.

Consider `N#Cc1c(C(F)(F)F)cc(C23CC4CC(CC(C4)C2)C3)nc1SCC(N)=O`, for which the “% Inhibition @ 10 uM” value is recorded as 5.83%.

For `COc1ccc(-c2csc(NC(=O)CSc3nc(C)c(CC(C)C)[nH]3)n2)cc1`, the “% Inhibition @ 10 uM” value is given as -2.79%.

For `O=C(Nc1cccc(F)c1)c1ccc(-c2ccccc2)cc1`, the “% Inhibition @ 10 uM” value is recorded as -3.72%.

On to `COc1ccc(C2CC(=O)n3nc(N)nc3N2)cc1` (stereo not shown), for which the “% Inhibition @ 10 uM” value is on record as -3.53%.

With `O=C(c1cccc(Br)c1)N1CCN(c2ccc(F)cc2)CC1`, the “% Inhibition @ 10 uM” value was -11.1%.

With `Cc1cc(NC(=O)COCc2cc(-c3cccs3)on2)nn1Cc1ccc(Cl)cc1`, the “% Inhibition @ 10 uM” value is on record as -6.47%.

Regarding `CCOC(=O)c1cnc2c(ccc3ccccc32)c1NCCOC(=O)c1cccc(C)c1`, the “% Inhibition @ 10 uM” value was determined as 0.884%.

`Cc1nn(-c2ccc(N3CCOCC3)nn2)c(C)c1CCC(=O)O`: the “% Inhibition @ 10 uM” value came to 4.01%.

`COc1ccc(OC)c(C2C(C#N)=C(N)Oc3c2c(C)nn3-c2ccc(C)cc2)c1` (stereo not shown): the “% Inhibition @ 10 uM” value was -0.366%.

As to `Cc1cccc(CCNC(=O)Cn2ncc3c2-c2ccccc2OC3)c1`, the “% Inhibition @ 10 uM” value is -2.42%.

As to `Cn1c2ccccc2c2nnc(SCC(=O)Nc3nnc(COc4ccccc4)s3)nc21`, the “% Inhibition @ 10 uM” value was -6.94%.

With `O=C(CCC(=O)N1CCc2ccccc21)N1CCc2ccccc21`, the “% Inhibition @ 10 uM” value amounted to 0.121%.

With `O=C1N/C(=C\c2ccc(Cl)cc2)C(=O)c2ccccc21`, the “% Inhibition @ 10 uM” value came out at 5.06%.

For `O=C(c1ccco1)N1CCN(C2CCCCC2NS(=O)(=O)c2ccccc2)CC1` (stereo not shown), the “% Inhibition @ 10 uM” value was 1%.

In the case of `Cc1ccc(N(CC(=O)N2CCOCC2)S(=O)(=O)c2ccc(C)cc2)cc1`, the “% Inhibition @ 10 uM” value is -5.67%.

As to `COc1ccccc1NC(=O)c1c(C)cc(=O)n(-c2ccccc2OC)c1C`, the “% Inhibition @ 10 uM” value was 1.54%.
